“And” between values parts separate entries of the source, which are not always exact repeats. Equal values may be shown once.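 Each compound was tested at five concentrations against cells in 96-well plates for 48 hours. GI50 marks 50% less growth.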 The source made the active and inactive calls. No stated cut-off is given here; in the data, active = GI50 up to about 1.1 µM and inactive = higher.
tested on: NCI-H322M; assay: NCI-60 cell line screen, 48 h

SMILES | GI50
Oc1ccc2occ3c2c1CCC3 | inactive: > 100 µM
CCOC(=O)COC1=Nc2cc(OC)c(OC)c3nc(Cl)cc(c23)C1=O | inactive: 10.9 µM
N#Cc1c(Cl)cccc1Oc1ccc(S(=O)(=O)N/C(=N\O)Nc2ccc(Cl)cc2)cc1 | inactive: 15.5 µM
Cc1cc(O)c2c(c1)C(=O)C=CC2=O [RAMENTACEONE] | inactive: 19.3 µM and inactive: 20.9 µM
C=CCN(c1cc(OCc2ccccc2)c(NC(C)=O)cc1[N+](=O)[O-])S(C)(=O)=O | inactive: 28.8 µM
CC1(C)CC(O)C2=C(O1)C(=O)c1ncccc1C2=O (stereo unspecified) | inactive: 14.5 µM
O=C(O)CCC(N/C=C1/N=C(c2ccccc2)OC1=O)C(=O)O (stereo unspecified) | inactive: > 100 µM
COc1cc(C(=O)n2c3ccc(Br)cc3c3nc4ccccc4nc32)cc(OC)c1OC | inactive: > 100 µM
CCCSc1ccc2[nH]c(/N=C/c3ccco3)cc2c1 | inactive: 31.5 µM
COc1cccc2c1CCc1sc(CN3CCN(C)CC3)nc1-2 | inactive: > 100 µM
COc1ccc2c(c1)CCN=C2c1ccccc1CCCCl | inactive: 55.5 µM
COc1oc(C(=O)NC2CCCCC2)c(-c2ccc(Cl)cc2)c1S(=O)(=O)c1ccccc1 | inactive: > 100 µM
CCOC(=O)c1nc2cc(C(F)(F)F)ccc2nc1Nc1ccc(Cl)c(Cl)c1 | inactive: > 100 µM
CC1(C)CC2=NOS3=C2C(=NO3)C1c1ccccn1 (stereo unspecified) | inactive: > 100 µM
CCCCC(=O)Nc1ccc2cc(C(=O)OC)c(ON3C(=O)c4ccccc4C3=O)nc2n1 | inactive: 16 µM
O=C1c2ccccc2C2C1C(c1ccccc1)C1(Cc3ccccc3C1=O)C2c1ccccc1 (stereo unspecified) | inactive: > 100 µM
Cc1cc2c(C)n[nH]c2c(C(=O)O)c1C | inactive: > 100 µM
CC1CCC(C(=O)O)(C(Br)C(=O)O)CC1 (stereo unspecified) | inactive: > 100 µM
Cc1ccc(Cl)c2c(=O)cc(-c3ccccc3)[nH]c12 | inactive: 71.3 µM
CC(C)c1ccccc1NC(=O)CCc1n[nH]c(=S)o1 | inactive: > 100 µM
c1ccc(CC(Nc2cccnc2)c2ccccc2)cc1 (stereo unspecified) | inactive: 25.9 µM
N=C(N)NCCCC(NC(=O)OCCCCn1ccc(N)nc1=O)C(=O)O (stereo unspecified) | inactive: > 100 µM

SMILES | GI50
COc1cc(O)c(C(=O)/C=C/c2ccc(O)cc2)cc1Oc1ccc(C(=O)/C=C/c2ccc(O)cc2)c(O)c1 [RHUSCHALCONE IV] | inactive: 2.91 µM
COc1ccc(-c2nnc(-c3c(C)n(C)n(-c4ccccc4)c3=O)o2)cc1 | inactive: > 100 µM
C#CCn1c(I)cc2c(c1=O)COC(=O)[C@]2(O)CC | inactive: > 100 µM
O=C1CCc2ccc(O)c(c2)Oc2ccc(cc2)C(Sc2ccccc2)CCO1 (stereo unspecified) | inactive: 11.6 µM
ClC1=C(Cl)C(Cl)(Cl)SS1 | inactive: > 10 µM
CN(C)c1ccc(/C=C(\NC(=O)c2ccccc2)C(=O)Nc2ccccc2C(=O)NCc2ccccc2)cc1 | inactive: > 100 µM
O=C1N/C(=N/N=C/C(O)C(O)C(O)C(O)CO)N/C1=C\c1ccco1 (stereo unspecified) | inactive: > 100 µM
COC(=O)[C@H](Cc1c[nH]c2ccccc12)NP(=O)(O)OCC1C=CC(n2cc(C)c(=O)[nH]c2=O)O1 (stereo partly specified) | inactive: > 100 µM
CC[C@H](C)[C@H]1NC(=O)[C@@H](NC(=O)[C@@H](CC(C)C)N(C)C(=O)C2CCCN2C(=O)[C@H](C)O)[C@@H](C)OC(=O)[C@H](Cc2ccccc2)N(C)C(=O)[C@@H]2CCCN2C(=O)[C@H](CC(C)C)NC(=O)[C@@H](C)C(=O)[C@H](C(C)C)OC(=O)C[C@@H]1O (stereo partly specified) | active: < 0.00625 µM
COc1cc(OC)c(-c2oc3ccccc3c(=O)c2O)c(OC)c1 | inactive: > 100 µM
CCOC(=O)c1cc(-n2nnc3ccccc32)cn1C | inactive: > 10 µM
COC(=O)c1cc(Cl)ccc1NC(=O)C1CCCCC1 | inactive: 91.8 µM
CC(=O)NC1=C(Sc2ccc(Cl)cc2)C(=O)c2ccccc2C1=O | inactive: 14.8 µM
Cn1nnnc1SC(F)(F)c1nc2ccccc2o1 | inactive: > 100 µM
COc1ccc(-c2cn3c(nc4ccccc43)c(/C=C/c3cccs3)n2)cc1 | inactive: 64.1 µM
c1ccc(C2[C@@H]3CCCc4ccccc4C3=NN2c2ccccc2)cc1 (stereo partly specified) | inactive: > 100 µM
NC(=S)N/N=C1/CN(c2ccc(Cl)c(Cl)c2)CC(=O)C1c1nc2ccccc2s1 (stereo unspecified) | inactive: 37.7 µM
CCC(O)CC1OC2(CCC1C)CC1OC(=O)/C=C\C(C)(O)C(O)C(C)C(O)C(OC3CC(OC)C(O)C(C)O3)C(O)C(C)(O)CCC/C=C/C3CC(C)COC3(O)CC(O2)C1C (stereo unspecified) | inactive: 26.3 µM
OCc1nnn2c1CCC2 | inactive: > 100 µM
CC(CCC#N)(CCC#N)C(=O)CC(O)(C(F)(F)F)C(F)(F)F | inactive: 20.8 µM
CN(C)NC(=S)Nc1ccccc1Br | inactive: > 100 µM
CC(=O)N1c2ccccc2Sc2cc(C(O)(C(F)(F)F)C(F)(F)F)ccc21 | inactive: > 10 µM

SMILES | GI50
C[N+](C)(C)C(C1=CCCC1=O)c1ccccc1 (stereo unspecified) | inactive: > 100 µM
CCOC(=O)C(C)Sc1nnc(COc2ccccc2OC)n1-c1ccccc1 (stereo unspecified) | inactive: > 100 µM
O=[N+]([O-])C(=C/C1CCCCC1)/C(=C\C1CCCCC1)[N+](=O)[O-] | inactive: 16.3 µM
Cc1ccc(SC[C@@]2(C(F)F)NC(=O)NC2=O)cc1 | inactive: > 100 µM
O=C1C2=C(c3ccccc31)C(c1ccc(Cl)cc1)NC(S)=N2 (stereo unspecified) | inactive: 22.6 µM
COc1ccc(/C=C2\CCS(=O)(=O)c3ccccc3C2=O)cc1OC | inactive: 80.2 µM
CC[C@]12C=CCN3CCC4(c5cc([C@@]6(C(=O)OC)CC7CN(CCc8c6[nH]c6ccccc86)CC6CCCCC67)c(OC)cc5N(C)C4[C@](O)(C(=O)OC)C1OC(C)=O)[C@@H]32 (stereo partly specified) | active: < 0.01 µM
COc1ccc2[nH]cc(C=C3C(=O)NC(=S)NC3=O)c2c1 | inactive: > 100 µM
O=C1c2ccccc2CC12Cc1ccccc1C2 | inactive: > 100 µM
O=S(=O)(SC1=NCCN1)c1ccc2ccccc2c1 | inactive: 41.6 µM
COc1ccc(C2c3cc4c(cc3OC(N3CCOCC3)C2C)OCO4)c(OC)c1 (stereo unspecified) | inactive: 11.1 µM
CSC1=Nc2ccccc2N(C)c2c1c(-c1ccccc1)nn2C | inactive: 84.5 µM
C/C=C/C1=CC(=O)C(O)C1O (stereo unspecified) | inactive: 30.8 µM
O=C(CCc1cc(-c2ccc(F)cc2)n[nH]1)N(Cc1ccccc1)Cc1ccccc1 | inactive: > 100 µM
O=C1C2C3C=C4c5ccccc5N(c5ccccc5)C4(C2C(=O)N1Cc1ccccc1)C1C(=O)N(Cc2ccccc2)C(=O)C31 (stereo unspecified) | inactive: > 100 µM
CC1/C=C/[C@@]2(C)CCC(C(C)(C)O)C2C(O)C[C@](C)(O)/C=C/C1 (stereo partly specified) | inactive: > 100 µM
C[Si](C)(C)C(Sc1ccccc1)(Sc1ccccc1)Sc1ccccc1 | inactive: > 100 µM
N#CCOc1ccc(/C=C/C(=O)c2ccc(Cl)cc2)cc1 | inactive: 83.4 µM
CC(=O)Nc1cc(C(=O)Nc2cc(C(=O)N3CC(CCl)c4c3cc(N)c3ccccc43)nn2C)nn1C (stereo unspecified) | active: 0.106 µM
Cc1c(C#N)c2nnn(-c3ccc(Cl)cc3)c(=O)n2c1-c1ccccc1 | active: 0.124 µM
Cn1c2cc(Cl)ccc2c2ccc3c(c21)C(=O)C=CC3=O | inactive: > 100 µM
O=C1c2ccccc2-c2cc([N+](=O)[O-])c([N+](=O)[O-])cc21 | inactive: 9.77 µM
